From the supplement of paper PMC4967469
By IC50 is meant the dose at which the fit gives 50% viability; where the fit passes the top or lowest dose, that dose stands as a limit. AUC is the area under the same curve over the 256-fold range up to the top dose, as a fraction; the more sensitive the line, the further below 1. For part of these data: An inferred top dose comes from the curve model; the source does not state it. For part of these data: Where an entry number is given, a second screen of the drug exists; the two often differ.

How the values were obtained:
Experiment in all cases: Viability of human cancer cell lines after 72 h of drug (GDSC screen)
Bicalutamide = compound: CC(O)(CS(=O)(=O)c1ccc(F)cc1)C(=O)Nc1ccc(C#N)c(C(F)(F)F)c1 [Bicalutamide]; conditions: top dose inferred
Procedure: (§1)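 Human cancer cell lines in 384-well plates, medium with 10% serum, drug for 72 h over a 256-fold dose range (nine 2-fold or five 4-fold steps up to the top dose). Adherent lines were fixed and stained with the nucleic acid dye Syto60, suspension lines read with resazurin; signal relative to control wells, capped at 0 and 100%. One two-parameter sigmoid per drug and line, fitted in a mixed model over all curves with the slope shared within a line.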

MP470 = compound: S=C(NCc1ccc2c(c1)OCO2)N1CCN(c2ncnc3c2oc2ccccc23)CC1 [MP470]; conditions: top dose 20 µM; top dose inferred
Procedure: as §1

AUY922 = compound: CCNC(=O)c1noc(-c2cc(C(C)C)c(O)cc2O)c1-c1ccc(CN2CCOCC2)cc1 [AUY922]; conditions: top dose 0.256 µM; top dose inferred
Procedure: as §1

GNF-2 = compound: NC(=O)c1cccc(-c2cc(Nc3ccc(OC(F)(F)F)cc3)ncn2)c1 [GNF-2]; conditions: top dose 1.28 µM; top dose inferred
Procedure: as §1

Gemcitabine = compound: Nc1ccn([C@@H]2O[C@H](CO)[C@@H](O)C2(F)F)c(=O)n1 [Gemcitabine]; conditions: top dose 1.024 µM
Procedure: as §1

LFM-A13 = compound: C/C(O)=C(\C#N)C(=O)Nc1cc(Br)ccc1Br [LFM-A13]; conditions: top dose 16 µM; top dose inferred
Procedure: as §1

TW-37 = compound: CC(C)c1ccccc1Cc1cc(C(=O)Nc2ccc(S(=O)(=O)c3ccccc3C(C)(C)C)cc2)c(O)c(O)c1O [TW-37]; conditions: top dose 5 µM
Procedure: as §1

Nilotinib = compound: Cc1cn(-c2cc(NC(=O)c3ccc(C)c(Nc4nccc(-c5cccnc5)n4)c3)cc(C(F)(F)F)c2)cn1 [Nilotinib]; conditions: top dose 2 µM
Procedure: as §1

T0901317 = compound: O=S(=O)(c1ccccc1)N(CC(F)(F)F)c1ccc(C(O)(C(F)(F)F)C(F)(F)F)cc1 [T0901317]; conditions: top dose 10.24 µM; top dose inferred
Procedure: as §1

KIN001-270 = compound: Cc1ccc(Nc2cc(-c3cccc(N4C(=O)c5ccccc5C4=O)c3)ncn2)cc1NS(C)(=O)=O [KIN001-270]; conditions: top dose 20 µM; top dose inferred
Procedure: as §1

[1] = top dose 1.024 µM, screen: GDSC drug entry 150
[2] = top dose 10 µM, screen: GDSC drug entry 1502

Cell Line | AUC (Bicalutamide; [1]) | IC50 (Bicalutamide; [1]) [nM] | AUC (Bicalutamide; [2]) | IC50 (Bicalutamide; [2]) [nM] | AUC (MP470) | IC50 (MP470) [nM] | AUC (AUY922) | IC50 (AUY922) [nM] | AUC (GNF-2) | IC50 (GNF-2) [nM] | AUC (Gemcitabine) | IC50 (Gemcitabine) [nM] | AUC (LFM-A13) | IC50 (LFM-A13) [nM] | AUC (TW-37) | IC50 (TW-37) [nM] | AUC (Nilotinib) | IC50 (Nilotinib) [nM] | AUC (T0901317) | IC50 (T0901317) [nM] | AUC (KIN001-270) | IC50 (KIN001-270) [nM]
NTERA-2 cl.D1 (testis, adherent) | 0.985 | > 1020 | 0.928 | > 10000 | 0.926 | > 20000 | 0.549 | 21.8 | 0.974 | > 1280 | 0.192 | 7.81 | 0.979 | > 16000 | 0.329 | 105 | 0.985 | > 2000 | 0.98 | > 10200 | 0.926 | > 20000
NCI-H69 (small cell lung carcinoma, suspension) | 0.985 | > 1020 | 0.97 | > 10000 | 0.723 | 5820 | 0.888 | > 256 | 0.986 | > 1280 | 0.806 | 594 | 0.977 | > 16000 | 0.756 | 1880 | 0.986 | > 2000 | 0.981 | > 10200 | 0.959 | > 20000
NCI-H1876 (small cell lung carcinoma, adherent) | 0.979 | > 1020 | 0.986 | > 10000 | 0.853 | 16000 | 0.933 | > 256 | 0.987 | > 1280 | 0.38 | 29.9 | 0.987 | > 16000 | 0.471 | 260 | 0.985 | > 2000 | 0.975 | > 10200 | 0.973 | > 20000
EC-GI-10 (oesophagus, adherent) | 0.984 | > 1020 | 0.982 | > 10000 | 0.701 | 4570 | 0.94 | > 256 | 0.989 | > 1280 | 0.967 | > 1020 | 0.987 | > 16000 | 0.589 | 547 | 0.988 | > 2000 | 0.988 | > 10200 | 0.963 | > 20000
SU-DHL-4 (B-cell lymphoma, suspension) | 0.997 | > 1020 | 0.997 | > 10000 | 0.85 | 9110 | 0.56 | 22.4 | 0.996 | > 1280 | 0.964 | > 1020 | 0.994 | > 16000 | 0.434 | 217 | 0.997 | > 2000 | 0.996 | > 10200 | 0.946 | 18800
TE-1 (oesophagus, adherent) | 0.981 | > 1020 | 0.962 | > 10000 | 0.863 | > 20000 | 0.458 | 11.9 | 0.94 | > 1280 | 0.927 | > 1020 | 0.95 | > 16000 | 0.644 | 871 | 0.964 | > 2000 | 0.97 | > 10200 | 0.977 | > 20000
LB771-HNC (head and neck, adherent) | 0.981 | > 1020 | 0.964 | > 10000 | 0.815 | 14700 | 0.98 | > 256 | 0.962 | > 1280 | 0.87 | > 1020 | 0.955 | > 16000 | 0.453 | 225 | 0.928 | > 2000 | 0.973 | > 10200 | 0.973 | > 20000
EW-18 (Ewing sarcoma, suspension) | 0.985 | > 1020 | 0.978 | > 10000 | 0.962 | > 20000 | 0.741 | 82.8 | 0.985 | > 1280 | 0.648 | 169 | 0.967 | > 16000 | 0.641 | 789 | 0.94 | > 2000 | 0.956 | > 10200 | 0.969 | > 20000
NCI-H1869 (lung squamous cell carcinoma, adherent) | 0.982 | > 1020 | 0.976 | > 10000 | 0.948 | > 20000 | 0.683 | 55.8 | 0.966 | > 1280 | 0.946 | > 1020 | 0.975 | > 16000 | 0.525 | 369 | 0.983 | > 2000 | 0.978 | > 10200 | 0.978 | > 20000
TGW (neuroblastoma, adherent) | 0.992 | > 1020 | 0.991 | > 10000 | 0.968 | > 20000 | 0.706 | 55.2 | 0.992 | > 1280 | 0.759 | 311 | 0.992 | > 16000 | 0.576 | 488 | 0.989 | > 2000 | 0.964 | > 10200 | 0.91 | > 20000
EM-2 (chronic myeloid leukaemia, suspension) | 0.98 | > 1020 | 0.976 | > 10000 | 0.871 | > 20000 | 0.704 | 65.5 | 0.628 | 190 | 0.62 | 143 | 0.979 | > 16000 | 0.572 | 504 | 0.096 | < 7.81 | 0.934 | > 10200 | 0.955 | > 20000
VA-ES-BJ (soft tissue, adherent) | 0.983 | > 1020 | 0.956 | > 10000 | 0.931 | > 20000 | 0.555 | 22.8 | 0.981 | > 1280 | 0.197 | 7.55 | 0.917 | > 16000 | 0.362 | 127 | 0.961 | > 2000 | 0.974 | > 10200 | 0.976 | > 20000
